Over roughly 2,900 compounds, “NF-kB SEAP reporter activity, fold change vs agonist alone” has its median near 0.99; the highest 2% begin near 2.6. The list shows a part of the results.

The test system of test [1] is RAW-Dual. The experiment in a line: NF-kB SEAP reporter activity, fold change vs agonist alone; cytotoxicity flag (confluency mask): not cytotoxic; higher = enhanced NF-kB activity. Summed up:
(§1)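 Supernatant from RAW-Dual macrophages was read after 20 hours for IRF by QuantiLuc luminescence and for NF-κB by QuantiBlue absorbance at 620 nm. The cells (50,000 cells/well in DMEM, 384-well plates, 37 °C, 5% CO2) had received 50 nL of library stock by pin tool and, 1 h later, a PRR agonist. Reporter activity is expressed relative to agonist-alone wells as fold change, and wells were flagged cytotoxic if IncuCyte confluency was under 70% of agonist controls in both mask sets.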

Test [2] has as its system RAW-Dual. Nature of the test: NF-kB SEAP reporter activity, fold change vs agonist alone; higher = enhanced NF-kB activity. Summed up: as §1
In test [3] the test system is RAW-Dual. The experiment in a line: NF-kB SEAP reporter activity, fold change vs agonist alone; cytotoxicity flag (confluency mask): cytotoxic (confluency <70% of control); higher = enhanced NF-kB activity. Summed up:
as §1

Where [4] appears, read: agonist: ODN 1826 (TLR9) 0.5 ug/mL.
Setting [5] is: agonist: Pam2CSK4 (TLR2/6) 0.1 ug/mL.
Setting [6] is: agonist: Pam3CSK4 (TLR2/1) 0.1 ug/mL.
The mark [7] stands for this setting: library stock concentration (final ~1000-fold dilution): 10 mM, cytotoxicity flag (confluency mask): not cytotoxic, agonist: Imiquimod (TLR7) […].
Setting [8] is: library stock concentration (final ~1000-fold dilution): 10 mM, cytotoxicity flag (confluency mask): not cytotoxic, agonist: MPLA (TLR4) […].
The mark [9] stands for this setting: library stock concentration (final ~1000-fold dilution): 2 mM, cytotoxicity flag (confluency mask): not cytotoxic, agonist: MPLA (TLR4) […].
[10] abbreviates: library stock concentration (final ~1000-fold dilution): 10 mM, cytotoxicity flag (confluency mask): cytotoxic (confluency <70% of control), agonist: MPLA (TLR4) […].
[11] abbreviates: library stock concentration (final ~1000-fold dilution): 2 mM, cytotoxicity flag (confluency mask): not cytotoxic, agonist: Imiquimod (TLR7) […].

Take `CCNC1CN(CCCOC)S(=O)(=O)c2sc(S(N)(=O)=O)cc21` (stereo unspecified) (library stock concentration (final ~1000-fold dilution): 10 mM): the “NF-kB SEAP reporter activity” value turned out to be 1.54 in the test with RAW-Dual [1] (agonist: LPS (TLR4) 0.1 ug/mL), 1.09 in the test with RAW-Dual [1] (setting [4]), 1.3 in the test on RAW-Dual [1] (setting [5]) and 1.19 in the test with RAW-Dual [1] (setting [6]).

With `CNC(=O)c1c(C)oc2cc(Oc3ncnc4cc(OC)c(OC)cc34)ccc12`, the “NF-kB SEAP reporter activity” value turned out to be 0.938 in the test with RAW-Dual [2] (setting [7]) and 1.11 in the test on RAW-Dual [2] (setting [8]).

For the compound `CNC(=O)c1c(C)oc2cc(Oc3ncnc4cc(OC)c(OC)cc34)ccc12` (library stock concentration (final ~1000-fold dilution): 10 mM), the “NF-kB SEAP reporter activity” value in the test with RAW-Dual [1] (agonist: LPS (TLR4) 0.1 ug/mL) worked out at 0.944; with RAW-Dual [1] (setting [4]), 1.17; in the test with RAW-Dual [1] (setting [5]), 1.03; with RAW-Dual [1] (setting [6]), 1.2.

With `COc1cc2ncnc(Nc3ccc(Cl)cc3F)c2cc1OC` (library stock concentration (final ~1000-fold dilution): 10 mM), the “NF-kB SEAP reporter activity” value stood at 1.63 in the test with RAW-Dual [1] (agonist: LPS (TLR4) 0.1 ug/mL), 0.863 in the test with RAW-Dual [1] (setting [4]), 1.14 in the test on RAW-Dual [1] (setting [5]) and 1.36 in the test on RAW-Dual [1] (setting [6]).

Turning to `COc1cc2ncnc(Nc3ccc(Cl)cc3F)c2cc1OC`, the results for the “NF-kB SEAP reporter activity” value with RAW-Dual [2] (setting [7]) and with RAW-Dual [2] (setting [8]) were 1.44 and 1.19, respectively.

For `COc1cc(CCC(=O)CC(O)CCc2ccc(O)c(OC)c2)ccc1O` (stereo unspecified), the “NF-kB SEAP reporter activity” value in the test on RAW-Dual [2] (setting [7]) turned out to be 1.04; with RAW-Dual [2] (setting [8]), 1.1.

As to `COc1cc(CCC(=O)CC(O)CCc2ccc(O)c(OC)c2)ccc1O` (stereo unspecified) (library stock concentration (final ~1000-fold dilution): 10 mM), the “NF-kB SEAP reporter activity” value in the test on RAW-Dual [1] (agonist: LPS (TLR4) 0.1 ug/mL) came to 1.4; in the test with RAW-Dual [1] (setting [4]), 1.07; in the test on RAW-Dual [1] (setting [5]) it was 0.979; in the test with RAW-Dual [1] (setting [6]) it was 1.25.

In the case of `Cc1[nH]c(C=C2C(=O)Nc3ccc(F)cc32)c(C)c1C(=O)NCCN1CCCC1`, the “NF-kB SEAP reporter activity” value with RAW-Dual [2] (setting [9]) was 0.63.

Turning to `Cc1[nH]c(C=C2C(=O)Nc3ccc(F)cc32)c(C)c1C(=O)NCCN1CCCC1` (library stock concentration (final ~1000-fold dilution): 2 mM), the “NF-kB SEAP reporter activity” value in the test on RAW-Dual [1] (agonist: LPS (TLR4) 0.1 ug/mL) came out at 1.04; in the test with RAW-Dual [1] (setting [4]) it was 0.183; in the test on RAW-Dual [1] (setting [5]), 0.266; in the test with RAW-Dual [1] (setting [6]), 0.414.

As for `Cl.Cl.Cn1cc(CNCC2CCN(c3ncc(C(=O)NO)cn3)CC2)c2ccccc21`, the “NF-kB SEAP reporter activity” value with RAW-Dual [2] (setting [10]) was found to be 2.65.

Take `Cl.Cl.Cn1cc(CNCC2CCN(c3ncc(C(=O)NO)cn3)CC2)c2ccccc21` (library stock concentration (final ~1000-fold dilution): 10 mM): the “NF-kB SEAP reporter activity” value with RAW-Dual [3] (agonist: LPS (TLR4) 0.1 ug/mL) stood at 7.01.

For the compound `CCc1ccc(Cc2ccc3c(c2)C2(OC3)OC(CO)C(O)C(O)C2O)cc1.O` (stereo unspecified), the entries for the “NF-kB SEAP reporter activity” value in the test on RAW-Dual [2] (setting [7]) and in the test with RAW-Dual [2] (setting [8]) were 0.928 and 1.07, respectively.

With `CCc1ccc(Cc2ccc3c(c2)C2(OC3)OC(CO)C(O)C(O)C2O)cc1.O` (stereo unspecified) (library stock concentration (final ~1000-fold dilution): 10 mM), the “NF-kB SEAP reporter activity” value was 1.14 in the test with RAW-Dual [1] (agonist: LPS (TLR4) 0.1 ug/mL), 1.01 with RAW-Dual [1] (setting [4]), 1.05 with RAW-Dual [1] (setting [5]) and 0.931 with RAW-Dual [1] (setting [6]).

Consider `Cc1[nH]c(/C=C2\C(=O)Nc3ccccc32)c(C)c1CCC(=O)O` (library stock concentration (final ~1000-fold dilution): 10 mM), for which the “NF-kB SEAP reporter activity” value in the test on RAW-Dual [1] (agonist: LPS (TLR4) 0.1 ug/mL) amounted to 0.732; with RAW-Dual [1] (setting [4]) it was 0.877; with RAW-Dual [1] (setting [5]) it was 0.622; in the test on RAW-Dual [1] (setting [6]), 0.768.

For `Cc1[nH]c(/C=C2\C(=O)Nc3ccccc32)c(C)c1CCC(=O)O`, the “NF-kB SEAP reporter activity” value in the test on RAW-Dual [2] (setting [7]) turned out to be 0.702; in the test with RAW-Dual [2] (setting [8]) it was 0.789.

On to `CC(=O)N1CCN(c2ccc(OCC3COC(Cn4ccnc4)(c4ccc(Cl)cc4Cl)O3)cc2)CC1` (stereo unspecified) (library stock concentration (final ~1000-fold dilution): 2 mM), for which the “NF-kB SEAP reporter activity” value is 1.28 in the test on RAW-Dual [1] (agonist: LPS (TLR4) 0.1 ug/mL), 0.888 in the test on RAW-Dual [1] (setting [4]), 1.04 with RAW-Dual [1] (setting [5]) and 0.972 in the test on RAW-Dual [1] (setting [6]).

Consider `CC(=O)N1CCN(c2ccc(OCC3COC(Cn4ccnc4)(c4ccc(Cl)cc4Cl)O3)cc2)CC1` (stereo unspecified), for which the “NF-kB SEAP reporter activity” value was determined as 0.996 in the test on RAW-Dual [2] (setting [11]) and 1.09 with RAW-Dual [2] (setting [9]).

`CN(C)CCC=C1c2ccccc2CCc2ccccc21.Cl`: the “NF-kB SEAP reporter activity” value turned out to be 1.69 with RAW-Dual [2] (setting [7]) and 1.29 in the test with RAW-Dual [2] (setting [8]).

Consider `CN(C)CCC=C1c2ccccc2CCc2ccccc21.Cl` (library stock concentration (final ~1000-fold dilution): 10 mM), for which the “NF-kB SEAP reporter activity” value in the test on RAW-Dual [1] (agonist: LPS (TLR4) 0.1 ug/mL) amounted to 1.1; in the test on RAW-Dual [1] (setting [4]) it was 0.968; in the test on RAW-Dual [1] (setting [5]), 0.799; in the test on RAW-Dual [1] (setting [6]), 0.946.

Regarding `CC(C)c1cnn2c(NCc3ccccc3-n3cccn3)nc(OC3CCCNC3)nc12` (stereo unspecified), the “NF-kB SEAP reporter activity” value with RAW-Dual [2] (library stock concentration (final ~1000-fold dilution): 10 mM, cytotoxicity flag (confluency mask): cytotoxic (confluency <70% of control), agonist: Imiquimod (TLR7) […]) came out at 0.13; in the test with RAW-Dual [2] (setting [10]), 0.256.

Consider `CC(C)c1cnn2c(NCc3ccccc3-n3cccn3)nc(OC3CCCNC3)nc12` (stereo unspecified) (library stock concentration (final ~1000-fold dilution): 10 mM), for which the “NF-kB SEAP reporter activity” value in the test with RAW-Dual [3] (agonist: LPS (TLR4) 0.1 ug/mL) is 0.317; in the test on RAW-Dual [3] (setting [4]) it was 0.182; with RAW-Dual [3] (setting [5]), 0.0648; with RAW-Dual [3] (setting [6]), 0.259.

Regarding `CNc1ncc2cc(-c3cc(NC(=O)NCCC(C)(C)C)c(F)cc3C)c(C)nc2n1`, the “NF-kB SEAP reporter activity” value came out at 0.497 in the test with RAW-Dual [2] (setting [11]) and 0.918 in the test on RAW-Dual [2] (setting [9]).

Regarding `CNc1ncc2cc(-c3cc(NC(=O)NCCC(C)(C)C)c(F)cc3C)c(C)nc2n1` (library stock concentration (final ~1000-fold dilution): 2 mM), the “NF-kB SEAP reporter activity” value was 1.42 with RAW-Dual [1] (agonist: LPS (TLR4) 0.1 ug/mL), 0.533 with RAW-Dual [1] (setting [4]), 0.218 in the test with RAW-Dual [1] (setting [5]) and 0.28 in the test on RAW-Dual [1] (setting [6]).

Consider `CC1(C)SC2C(NC(=O)C(N)c3ccccc3)C(=O)N2C1C(=O)OCOC(=O)C1N2C(=O)CC2S(=O)(=O)C1(C)C` (stereo unspecified), for which, in the test on RAW-Dual [2] (setting [8]), the “NF-kB SEAP reporter activity” value was 1.07.

In the case of `CC1(C)SC2C(NC(=O)C(N)c3ccccc3)C(=O)N2C1C(=O)OCOC(=O)C1N2C(=O)CC2S(=O)(=O)C1(C)C` (stereo unspecified) (library stock concentration (final ~1000-fold dilution): 10 mM), the “NF-kB SEAP reporter activity” value with RAW-Dual [1] (agonist: LPS (TLR4) 0.1 ug/mL) came out at 1.06; in the test on RAW-Dual [1] (setting [4]) it was 0.886; in the test on RAW-Dual [1] (setting [5]) it was 1.16; in the test on RAW-Dual [1] (setting [6]), 0.993.

Take `COc1ccc2cccc(CCNC(C)=O)c2c1` (library stock concentration (final ~1000-fold dilution): 10 mM): the “NF-kB SEAP reporter activity” value was determined as 1.33 in the test on RAW-Dual [1] (agonist: LPS (TLR4) 0.1 ug/mL), 1.09 in the test on RAW-Dual [1] (setting [4]), 1.03 in the test with RAW-Dual [1] (setting [5]) and 1.19 with RAW-Dual [1] (setting [6]).

For `COc1ccc2cccc(CCNC(C)=O)c2c1`, the “NF-kB SEAP reporter activity” value in the test with RAW-Dual [2] (setting [7]) stood at 0.972; in the test on RAW-Dual [2] (setting [8]), 0.963.

(Values after the supplement of paper PMC10037445.)
